In the supplement of paper PMC9446081:
Among all 39,000 compounds or so, about 220 (0.56%) showed activity. The list shows a part of the results.

What follows are compounds tested on Escherichia coli K-12 BW25113 (assay: relative growth (OD600 normalised to plate interquartile mean) (fraction); higher = less growth inhibition, active = 0.2 or less). Settings: 50 µM; LB; incubation time: overnight (16-24 h).
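Note: static incubation at 37 °C against the wild-type strain, values averaged over two biological replicates.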

SMILES	relative growth
FC(F)(F)COCC(F)(F)F	inactive: 1.18
C[C@@H]1CCCCO[C@H](CN(C)S(=O)(=O)c2cn(C)cn2)[C@H](C)CN([C@@H](C)CO)C(=O)c2cc(N(C)C)ccc2O1	inactive: 0.986
C[C@@H]1CCCCO[C@H](CN(C)C(=O)Nc2ccc3c(c2)OCO3)[C@H](C)CN([C@H](C)CO)C(=O)c2cc(NC(=O)NC3CCCCC3)ccc2O1	inactive: 1.01
O=C(CCCCCCC(=O)Nc1ccc([C@H]2C[C@H](c3ccccc3)O[C@H](c3ccccc3)O2)cc1)NO	inactive: 1.01
C[C@@H]1CCCCO[C@@H](CN(C)Cc2ccc(C(F)(F)F)cc2)[C@@H](C)CN([C@H](C)CO)C(=O)c2cc(NS(C)(=O)=O)ccc2O1	inactive: 1
C[C@@H]1CN([C@@H](C)CO)C(=O)c2cccc(NS(=O)(=O)c3cn(C)cn3)c2O[C@H]1CN(C)CC1CC1	inactive: 1.02
C[C@@H]1CN([C@H](C)CO)C(=O)Cc2cc(NC(=O)c3ccncc3)ccc2O[C@H]1CN(C)S(=O)(=O)c1ccc(Cl)cc1	inactive: 0.99
Cc1ccc(S(=O)(=O)Nc2ccc3c(c2)C(=O)N([C@H](C)CO)C[C@@H](C)[C@H](CN(C)C(=O)Nc2ccc(F)cc2)OCCCC[C@H](C)O3)cc1	inactive: 1.02
O=c1cc(Cl)[nH]c(=O)[nH]1	inactive: 0.982
COc1cccc(S(=O)(=O)N(C)C[C@H]2OCc3cn(nn3)CCCC(=O)N([C@@H](C)CO)C[C@@H]2C)c1	inactive: 0.978
CO[C@@H]1CN(C)C(=O)c2ccc(NC(=O)Nc3cccc(F)c3)cc2OC[C@@H](C)N(C(=O)Nc2cccc(F)c2)C[C@H]1C	inactive: 1.01
NNC(=O)CCCC[C@H]1SC[C@H]2NC(=O)N[C@H]21	inactive: 1.02
C[C@H](CO)N1C[C@H](C)[C@@H](CN(C)S(C)(=O)=O)OCCCC[C@H](C)Oc2ccc(NC(=O)Nc3cccc4ccccc34)cc2C1=O	inactive: 1.01
COCC#Cc1cnc2c(c1)C(=O)N([C@@H](C)CO)C[C@@H](C)[C@@H](CN(C)C(=O)c1ccc3c(c1)OCO3)O2	inactive: 0.984
COc1ccc(NC(=O)N(C)C[C@@H]2Oc3ccc(NS(C)(=O)=O)cc3C(=O)N([C@H](C)CO)C[C@H]2C)cc1	inactive: 0.968
C[C@@H]1CN([C@H](C)CO)C(=O)Cc2cc(NC(=O)Nc3cccc4ccccc34)ccc2O[C@H]1CN(C)S(=O)(=O)c1ccc(F)cc1	inactive: 1.03
OC[C@@H](O)[C@@H](O)[C@@H](O)CO	inactive: 1
O=C(C[C@@H]1CC[C@@H]2[C@H](COC[C@@H](O)CN2S(=O)(=O)c2ccccc2)O1)N[C@@H]1CCN(Cc2ccccc2)C1	inactive: 1
O=C(C[C@H]1C=C[C@H](NS(=O)(=O)c2ccccc2F)[C@@H](CO)O1)NCCCN1CCOCC1	inactive: 0.993
C[C@H]1CN([C@@H](C)CO)C(=O)c2cc(NC(=O)NC3CCCCC3)ccc2O[C@@H]1CN(C)S(=O)(=O)c1cn(C)cn1	inactive: 1.01

SMILES	relative growth
CCO[C@@H]1OC(C(=O)N2CCN(Cc3ccc4c(c3)OCO4)CC2)=C[C@H](C)[C@H]1CCCOC(=O)NCCCCCC(=O)NO	inactive: 0.997
C[C@@H]1CN([C@@H](C)CO)C(=O)c2cccc(NS(=O)(=O)c3cccs3)c2O[C@@H]1CN(C)S(=O)(=O)c1cn(C)cn1	inactive: 1.01
C[C@H](CO)N1C[C@H](C)[C@@H](CN(C)S(=O)(=O)c2ccc(Cl)cc2)OCCCC[C@H](C)Oc2ccc(NC(=O)Nc3cccc4ccccc34)cc2C1=O	inactive: 1.02
COC1=C(OC)C(=O)C(C/C=C(\C)CC/C=C(\C)CC/C=C(\C)CC/C=C(\C)CC/C=C(\C)CC/C=C(\C)CC/C=C(\C)CC/C=C(\C)CC/C=C(\C)CCC=C(C)C)=C(C)C1=O	inactive: 0.976
CC(C)NC(=O)Nc1ccc2c(c1)C(=O)N([C@@H](C)CO)C[C@@H](C)[C@@H](CN(C)Cc1ccccc1)OCCCC[C@H](C)O2	inactive: 0.964
Cc1noc(C)c1S(=O)(=O)Nc1cccc2c1O[C@@H](CN(C)C(=O)Nc1ccccc1)[C@@H](C)CN([C@H](C)CO)C2=O	inactive: 0.978
C[C@H]1CN([C@@H](C)CO)C(=O)c2cccc(NC(=O)Nc3ccccc3)c2O[C@H]1CN(C)S(=O)(=O)c1cn(C)cn1	inactive: 0.987
C[C@H](CO)N1C[C@H](C)[C@@H](CN(C)S(=O)(=O)c2ccc(Cl)cc2)Oc2c(NC(=O)Nc3cccc4ccccc34)cccc2C1=O	inactive: 1.02
C[C@H]1CCCCO[C@H](CN(C)Cc2ccc(C(F)(F)F)cc2)[C@@H](C)CN([C@@H](C)CO)C(=O)c2cc(NC(=O)c3ccncc3)ccc2O1	inactive: 0.962
COC(=O)[C@H](Cc1ccccc1)N1CC2=CC(=O)[C@H](C3CC3)[C@H]2[C@@H]1[C@@H](O)CCn1cc(-c2cccc(/C=C/C(=O)NO)c2)nn1	inactive: 1
Br.Cn1c(=O)c2c(ncn2C)n(C)c1=O	inactive: 1.03
CC(C)Sc1n[nH]c(=O)[nH]c1=O	inactive: 0.86
CN(C)CCOC(=O)COc1ccc(Cl)cc1.Cl	inactive: 0.94
c1n[nH]nc1SSc1cn[nH]n1	inactive: 0.536
C[C@@H]1CN([C@H](C)CO)C(=O)c2cc(NS(=O)(=O)c3ccc(F)cc3)ccc2O[C@@H](C)CCCCO[C@H]1CN(C)Cc1ccc(C(F)(F)F)cc1	inactive: 1.02
CCCN(C)C[C@H]1OCCCC[C@H](C)Oc2ccc(NC(=O)CCC(F)(F)F)cc2C(=O)N([C@H](C)CO)C[C@@H]1C	inactive: 1
O=C(CCCCCC(=O)N/N=C/[C@H](O)[C@H](O)[C@@H](O)[C@@H](O)CO)NO	inactive: 0.989
CC(C)NCCCC[C@H](NC(=O)[C@H]1CCC(=O)N[C@@H](Cc2ccccc2)C(=O)N[C@H](Cc2ccc(O)cc2)C(=O)N[C@@H](CCCCNC(C)C)C(=O)N[C@H](CCCN=C(N)N)C(=O)N[C@@H](Cc2ccc3ccccc3c2)C(=O)NCC(=O)N1)C(N)=O	inactive: 1.01
C[C@H](CO)N1C[C@H](C)[C@@H](CN(C)C(=O)Nc2cccc3ccccc23)Oc2ccc(NC(=O)Cc3ccccc3)cc2C1=O	inactive: 1.06
COc1ccc(NC(=O)Nc2ccc3c(c2)C(=O)N([C@H](C)CO)C[C@H](C)[C@H](CN(C)CC2CCCCC2)OCCCC[C@@H](C)O3)cc1	inactive: 0.983

SMILES	relative growth
CN(C)CCO[C@@H]1C[C@@H]2CN(S(=O)(=O)c3cn(C)cn3)CCN2C1	inactive: 1.05
COc1ccc(NC(=O)N(C)C[C@@H]2OCc3ccccc3-c3c(n(C)c4ccccc34)C(=O)N([C@@H](C)CO)C[C@@H]2C)cc1	inactive: 1.01
C[C@@H]1CN([C@@H](C)CO)C(=O)c2cc(NC(=O)C3CCCCC3)ccc2O[C@@H](C)CCCCO[C@@H]1CN(C)C(=O)Nc1ccc2c(c1)OCO2	inactive: 0.99
COc1ccc(S(=O)(=O)Nc2ccc3c(c2)CC(=O)N([C@H](C)CO)C[C@@H](C)[C@H](CN(C)S(=O)(=O)c2ccccc2)O3)cc1	inactive: 1.04
COc1ccc(NC(=O)Nc2cccc3c2O[C@@H](CN(C)S(C)(=O)=O)[C@@H](C)CN([C@H](C)CO)C3=O)cc1	inactive: 1.01
C=CCOC(=O)[C@@H]1[C@H]2C(=O)O[C@H](c3ccccc3)[C@H](c3ccccc3)N2[C@H](c2ccc(OCCOC(=O)[C@H]3C[C@H]4C(=O)NCC(=O)N4[C@H]3c3ccc(O)cc3)cc2)[C@@]12C(=O)Nc1ccccc12	inactive: 1.06
NCCCC(N)C(=O)O.NCCCC(N)C(=O)O.O=C(O)CCC(=O)C(=O)O	inactive: 1.09
C[C@H]1CN([C@@H](C)CO)C(=O)c2cc(C#CCN(C)C)cnc2O[C@@H]1CN(C)S(=O)(=O)c1cn(C)cn1	inactive: 0.983
C[C@@H]1CN([C@H](C)CO)C(=O)c2cccc(NC(=O)Nc3ccc(C(F)(F)F)cc3)c2O[C@H]1CN(C)Cc1ccc(Cl)c(Cl)c1	inactive: 0.982
O=C(C[C@H]1C[C@@H]2c3cc(NC(=O)NC4CCCC4)ccc3O[C@@H]2[C@@H](CO)O1)NCCN1CCCCC1	inactive: 0.944
C[C@H](CO)N1C[C@H](C)[C@@H](CN(C)Cc2ccccc2)Oc2ccc(NC(=O)Nc3ccc(C(F)(F)F)cc3)cc2C1=O	inactive: 0.915
OC[C@@H]1CC[C@@H]2O[C@H](CCc3ccc(C#Cc4ccccc4)cc3)[C@H](n3cc(-c4ccccc4)nn3)C[C@@H]2O1	inactive: 1.07
C[C@H]1CN([C@@H](C)CO)C(=O)c2cc(NC(=O)CCCCCC(=O)Nc3ccccc3N)ccc2O[C@H]1CN(C)Cc1ccc(Oc2ccccc2)cc1	inactive: 0.992
C#Cc1ccc(C(=O)NO)cc1	inactive: 0.918
C[C@@H]1CN([C@@H](C)CO)C(=O)Cc2cc(NS(=O)(=O)c3ccc(F)cc3)ccc2O[C@@H]1CN(C)Cc1ccncc1	inactive: 0.983
C[C@H]1CN([C@@H](C)CO)C(=O)c2cc(NC(=O)Nc3cccc4ccccc34)ccc2O[C@@H]1CN(C)C(=O)Nc1cccc2ccccc12	inactive: 1.04
COCC#Cc1ccc([C@@H]2[C@H](CO)N3C(=O)CN(C(=O)c4ccncc4)C[C@@H]23)cc1	inactive: 0.998
COc1ccccc1OCC(O)COC(N)=O (centres undefined)	inactive: 0.939
CC(C)[C@H](NC(=O)[C@H](C)N(C)C)C(=O)N1CC[C@@H]2Oc3ccc(cc3)/C=C\NC(=O)[C@H](Cc3ccccc3)NC(=O)[C@H]21	inactive: 0.997
